Source: PubChem BioAssay AID686978 (National Center for Advancing Translational Sciences (NCATS), 2013)
“And” between values parts separate entries of the source, which are not always exact repeats. Equal values may be shown once. The whole screen tested about 420,000 compounds, of which about 64,000 (15%) were called active. Inconclusive means that the source gave no clear call. Such entries were picked first, then a sample of the others. Calls come from the whole dose curve; as a rule, active = well fitted inhibition curve with a large enough effect; inconclusive = small, poorly fitted or top-dose-only effect; inactive = flat fitted curve, though single readings scatter. A potency beside an inconclusive call is a rough fit, not a confirmed value.
% is set by controls: 0 for no effect and ±100 for the full control effect; potency is the fitted concentration of half-maximal effect; tags give direction and shape of the fitted curve.

Assay: qHTS for Inhibitors of human tyrosyl-DNA phosphodiesterase 1 (TDP1): qHTS in cells in absence of CPT; note: nearly all actives have a fitted effect of over 55% in size
Conditions: DT40 Tdp1-/- hTDP1 cells, no CPT, ATP luminescence, 48 h; activity change, negative = growth inhibition: at 46.2 µM (top of the series) unless noted
Description: Human tyrosyl-DNA phosphodiesterase 1 (TDP1) is a novel repair gene, and we propose to use it as a new target for anticancer drug development. TDP1 is not an essential protein, but under treatment with topoisomerase I poison (camptothecin: CPT), TDP1 works as a critical factor for cell survival. To directly identify novel TDP1 inhibitors active in a cellular environment, we have knocked-out the Tdp1 gene in chicken DT40 cells (Tdp1-/-) and generated a complemented counterpart cells that contains a stable transfection of the human TDP1 gene (Tdp1-/-;hTDP1 cells). For the primary screen, Tdp1-/-;hTDP1 cells will be exposed to small molecules in the presence or absence of CPT, and their growth kinetics will be evaluated after 48 hours by measuring ATP activity. […] The hit compounds will then be evaluated in the presence or absence of CPT using Tdp1-/- cells. […] In tertiary assays, biochemical gel-based assays will be used to assess whether the hit compounds specifically target TDP1.
To this end, we have screened this cell line against the MLSMR in two primary screens. In one screen we add CPT and in the other we screen in the absence of CPT; this AID represents the screen where CPT was absent.
NIH Chemical Genomics Center [NCGC]
NIH Molecular Libraries Probe Centers Network [MLPCN]
Assay Submitter (PI): Yves Pommier, NCI
DT40-hTDP1 cells without 20 nM Camptothecin (add 20 microL of DMSO in 1 L of cell culture medium) were dispensed at 400 cells/5microL/well in tissue culture treated 1536-well white wall/solid bottom assay plates (Greiner Bio-One North America, NC, U.S.A.) using a Multidrop Combi 8 channel dispenser (Thermo Fisher, Waltham, MA, USA). 23 nL compounds and controls were transferred using the pin tool (Kalypsys, San Diego, CA, USA) to the assay plates. The assay plates were then incubated at 37 masculineC for a minimum 48 hr. Three microL of Cell Titer Glo solution was added to the plates and incubated at RT in dark for 30 min. Luminescence was read using ViewLux (Perkin Elmer) with 1 sec exposure slow speed, high gain and 2x binning.
For `CCCCN(C(=O)CCC(=O)Nc1cc(C)on1)C(C(=O)NC1CCCC1)c1ccccc1C` (centres undefined), the Potency was inconclusive: 18.4 µM [inhibitor, single point].
In the case of `O=C(Nc1nc(-c2ccncc2)cs1)C1COc2ccccc2O1` (centres undefined), the Potency is reported as inconclusive: 16.4 µM [inhibitor, partial curve, poor fit].
In the case of `CCCC(NC(=O)c1ccccc1)c1nc2ccccc2n1Cc1ccc(C(=O)OC)o1` (centres undefined), the Potency is reported as inconclusive: 32.6 µM [inhibitor, single point].
For `CSc1ccc(S(=O)(=O)NCc2ccc(Cl)cc2Cl)cc1`, the Potency was inconclusive: 29.1 µM [inhibitor, single point].
In the case of `CC(C)(C)OC(=O)NCCCCc1cn(CC(=O)N2CCN(C(=O)OC(C)(C)C)CC2)nn1`, the Potency is reported as inconclusive: 23.1 µM [inhibitor, single point].
In the case of `CCCC1(CCC)NC(=O)N(CC(=O)c2cc(C)n(-c3ccc4c(c3)OCO4)c2C)C1=O`, the Potency is reported as active: 20.6 µM.
In the case of `COc1ccc(-c2noc3c2-c2nc(-c4ccccc4C)sc2CC3)cc1`, the Potency is reported as inconclusive: 18.4 µM [inhibitor, single point].
With `COc1ccc(OC)c(Nc2nc(NCCO)c3ccccc3n2)c1` the Potency was active: 16.4 µM.
For `CCCc1nc(N2CCN(C)CC2)c2sc(=S)n(-c3ccccc3)c2n1`, the Potency was active: 16.4 µM.
In the case of `COCCCN1C(=O)C(CC(=O)NC(c2ccccc2)c2ccccc2)CC(C(=O)N2CCCCCC2)=C1C` (centres undefined), the Potency is reported as inconclusive: 16.4 µM [inhibitor, single point].
For `O=C(Nc1cccc(C(F)(F)F)c1)c1ccc2nc(-c3ccco3)c(-c3ccco3)nc2c1`, the Potency was inconclusive: 20.6 µM [inhibitor, single point].
With `CCCCCCCCCCCCCCSCC(=O)O` the Potency was inconclusive: 29.1 µM [inhibitor, single point].
For `CC(C)c1ccc(NC(=O)CSc2nnc(-c3ccccn3)n2C)cc1`, the Potency was inconclusive: 16.4 µM [inhibitor, single point].
For `Cc1ccc(C)c(N2CCN(C3CCCC(C)C3)CC2)c1` (centres undefined), the Potency was inconclusive: 29.1 µM [inhibitor, single point].
In the case of `CC(C)Cn1cnc2c1c(=O)[nH]c(=O)n2Cc1ccccc1`, the Potency is reported as “inactive”.
With `Cc1ccc(C(=O)NCCNS(=O)(=O)c2ccccc2)cn1` the Potency was “inactive”.
In the case of `CCCC(CCC)C(=O)Oc1cc(C)[nH]c(=O)c1[N+](=O)[O-]`, the Potency is reported as “inactive”.
For `O=C(CSc1ncccn1)Nc1ccccc1`, the Potency was “inactive”.
With `Cn1c(=O)c2c(nc(N3CCc4ccccc4C3)n2Cc2ccccc2F)n(C)c1=O` the Potency was active: 15.8 µM.
With `O=C(c1cc2n(n1)C(C(F)(F)F)CC(c1ccc(F)cc1)N2)N1CCCC1` (centres undefined) the Potency was inconclusive: 9.2 µM [inhibitor, partial curve, poor fit].
In the case of `COC(=O)[C@@]12C[C@@H](CC(=O)N3CCCCC3)C(=O)N(CCc3ccc(OC)c(OC)c3)C1=CCC(C)(C)C2`, the Potency is reported as inconclusive: 25.9 µM [inhibitor, single point].
For `COc1ccccc1CNC(=O)CSc1nc(N)c(C#N)c(-c2cccs2)c1C#N`, the Potency was inconclusive: 22.4 µM [inhibitor, single point].
With `COC(=O)c1ccc(NC(=O)CN(c2ccc(OC)cc2)S(C)(=O)=O)cc1` the activity change, negative = growth inhibition was inconclusive: -30.1% [inhibitor].
In the case of `CCn1nc(C(=O)N2CCN(Cc3ccc4c(c3)OCO4)CC2)c2ccccc2c1=O`, the Potency is reported as inconclusive: 18.4 µM [inhibitor, single point].
In the case of `CCc1nc(NCc2cccs2)c2nnn(Cc3ccccc3)c2n1`, the Potency is reported as inconclusive: 29.1 µM [inhibitor, single point].
For `COc1ccc2c(c1)c(=O)oc1cc(OCC(=O)NC3CCCCC3)ccc12`, the Potency was inconclusive: 18.4 µM [inhibitor, single point].
In the case of `COc1ccc(S(=O)(=O)N2CCCOC2CNC(=O)C(=O)NCc2ccccc2F)cc1C` (centres undefined), the Potency is reported as inconclusive: 20.6 µM [inhibitor, single point].
With `Cc1ccccc1CN1C(=O)C(O)(c2c[nH]c3ccccc23)c2cc(Cl)ccc21` (centres undefined) the Potency was active: 18.4 µM.
For `Cc1coc2cc3oc(=O)c(CCC(=O)N4CCC(C(=O)O)(c5ccccc5)CC4)c(C)c3cc12`, the Potency was “inactive”.
In the case of `COc1cccc(CN(C)CC(=O)Nc2cccc(S(=O)(=O)N(C)c3ccccc3)c2)c1OC`, the Potency is reported as inconclusive: 23.1 µM [inhibitor, single point].
In the case of `CCCS(=O)(=O)C(=C(Nc1ccc(OC)cc1)Nc1ccc(OC)cc1)S(=O)(=O)CCC`, the Potency is reported as inconclusive: 7.31 µM [inhibitor, partial curve].
In the case of `COc1cccc(C(=O)N(C)CC(=O)Nc2ccc(F)c(F)c2F)c1`, the Potency is reported as “inactive”.
With `CNc1nnc(-c2ccc(C)cc2)c2ccccc12` the Potency was inconclusive: 29.1 µM [inhibitor, single point].
For `Cc1[nH]c2ccccc2c1/C=N/NC(=O)c1cccc([N+](=O)[O-])c1`, the Potency was inconclusive: 15.8 µM [inhibitor, partial curve] and inconclusive: 29.1 µM [inhibitor, single point].
